Measured values published in PubChem BioAssay AID1030 (National Center for Advancing Translational Sciences (NCATS), 2008).
About 16,000 (7.3%) of roughly 220,000 compounds were called active. Inconclusive means that the source gave no clear call. Such entries were picked first, then a sample of the others. Calls come from the whole dose curve; as a rule, active = well fitted inhibition curve with a large enough effect (not every such curve was filed as active); inconclusive = small, poorly fitted or top-dose-only effect, or another doubt; inactive = no such curve, though single readings can be large or run the other way. No potency is given beside an inconclusive call; the fits are too rough.

biological target: Aldehyde dehydrogenase 1A1 (Homo sapiens) (UniProt P00352); assay: qHTS Assay for Inhibitors of Aldehyde Dehydrogenase 1 (ALDH1A1); conditions: Purified ALDH1A1, NADH fluorescence, propionaldehyde substrate; series mostly up to 75.3 µM;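 for activity, negative = inhibition: plate controls were no enzyme wells and a reference inhibitor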
Sequence of UniProt P00352 (P00352 whole entry, looked up): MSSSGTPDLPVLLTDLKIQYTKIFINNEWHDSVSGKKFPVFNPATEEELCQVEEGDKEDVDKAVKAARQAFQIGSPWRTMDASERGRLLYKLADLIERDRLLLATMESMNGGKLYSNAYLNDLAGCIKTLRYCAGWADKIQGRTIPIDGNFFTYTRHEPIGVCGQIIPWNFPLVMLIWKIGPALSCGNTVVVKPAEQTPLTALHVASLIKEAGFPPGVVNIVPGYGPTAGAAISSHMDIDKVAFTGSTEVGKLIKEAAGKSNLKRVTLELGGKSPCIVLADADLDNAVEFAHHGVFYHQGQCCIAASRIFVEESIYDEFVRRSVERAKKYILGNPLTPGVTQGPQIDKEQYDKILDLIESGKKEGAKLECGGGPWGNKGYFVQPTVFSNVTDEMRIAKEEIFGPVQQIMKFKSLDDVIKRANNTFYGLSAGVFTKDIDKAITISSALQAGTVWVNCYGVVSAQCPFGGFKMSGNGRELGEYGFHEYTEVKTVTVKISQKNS
Potency is the fitted concentration of half-maximal effect; tags give direction and shape of the fitted curve.

Compound	Potency	activity, negative = inhibition
Cc1cnn(C(=O)c2ccccc2Br)c1	inconclusive [inhibitor, partial curve]	
CC(C)(C)NC(=O)NC(=O)CN1CCC(Cc2ccccc2)CC1	inconclusive [inhibitor, full curve, poor fit]	
Cc1ccn2c(-c3n[nH]c(=S)n3C)c(C)nc2c1	inconclusive [inhibitor, partial curve]	
CCc1ccc(CN(C)C(=O)CCc2nnc(COc3ccccc3)o2)cc1	inactive	
O=C(CSc1nnc(Cn2c(=O)sc3ccccc32)n1-c1ccccc1)N1CCCCCC1	inconclusive [inhibitor, single point]	
O=C(c1cc2c(s1)-c1ccccc1OC2)N1CCN(c2ccccc2)CC1	inconclusive [inhibitor, single point]	
Cc1ccc(-n2nc(C)c(NC(=O)CCl)c2C)cc1C	inconclusive [inhibitor, single point]	
CC1(C)CC(=O)C(C=Nc2ccccc2C(=O)O)=C(O)C1	inconclusive [inhibitor, single point]	
CCCCc1nc(NCc2ccccc2)c(C#N)c2c1CCCC2	inconclusive [inhibitor, single point]	
Cc1c2cnn(-c3ccccc3)c(=O)c2c(C)n1CCCC(=O)N1CCN(C)CC1	inconclusive [inhibitor, partial curve]	
Cn1ccnc1/C(=N\NC(=O)c1ccccc1)c1cccc([N+](=O)[O-])c1	inconclusive [inhibitor, single point]	
O=C(c1ccc2nc(N3CCOCC3)sc2c1)N1CCC(Cc2ccccc2)CC1	inconclusive [inhibitor, partial curve]	
CCN(CC)S(=O)(=O)c1cc(Cl)ccc1OC	inactive	
Cc1sc2ncnc(SCC(=O)N(C)C3CCS(=O)(=O)C3)c2c1C (stereo unspecified)	inactive	
Cc1ccc(O)c(NC(=O)C2CC(c3ccc(F)cc3)=NO2)c1 (stereo unspecified)	inconclusive [inhibitor, single point]	
COc1cccc(CSc2nnc(-c3ccco3)n2C)c1	inconclusive [inhibitor, partial curve]	
Cc1cc(S(=O)(=O)n2ccnc2)c(Cl)cc1Cl	inactive	
O=[N+]([O-])c1ccc(N2CCN(C(=S)Nc3ccc(F)cc3)CC2)cc1	inconclusive [inhibitor, single point]	
O=C(c1csnn1)N1CCC2(CC1)CN(c1ncccn1)C2	inconclusive [inhibitor, single point]	
Cn1c(=O)n(C)c2cc([N+](=O)[O-])c(N3CCN(C(=O)c4cccc(F)c4)CC3)cc21	inconclusive [inhibitor, partial curve]	
Cc1nc(SCC(=O)NCc2ccc3c(c2)OCO3)c(C#N)c2c1CCCC2	inconclusive [inhibitor, single point]	
C(=N\n1cnnc1)/c1ccc(OCc2ccccc2)cc1	inconclusive [inhibitor, single point]	
O=c1[nH]c(-[n+]2ccccc2)c(/C=N/NC([S-])=Nc2ccccc2)s1	active: 20 µM	

Compound	Potency	activity, negative = inhibition
COC(=O)c1ccccc1NC(=O)C1CCN(C(=O)c2cc(OC)cc(OC)c2)CC1	inactive	
CCOCCOC(=O)C1=C(C)N(C)C(=O)NC1c1ccccc1Cl (stereo unspecified)	inactive	
Cc1ccc(C(=O)N/C(=C\c2ccc(-c3ccc(Br)cc3)o2)C(=O)NCCCN(C)C)cc1	inconclusive [inhibitor, single point]	
O=c1[nH]c2c(n(C3CCCCC3)c1=O)CCC2	inconclusive [inhibitor, single point]	
CNC(=O)[C@H]1O[C@@H](n2cnc3c(NCc4ccc(N)cc4)ncnc32)[C@H](O)[C@@H]1O	inconclusive [inhibitor, single point]	
Nc1nonc1-c1noc(-c2ccccc2)n1	inactive	
CC(=O)/C=C/n1c(=S)oc2ccccc21	active: 7.94 µM	
CCCCN(C)S(=O)(=O)c1ccc(C(=O)N=c2sc3cc(NC(C)=O)ccc3n2C)cc1	inactive	
O=c1[nH]c(=O)c2nc(Br)n(C3OC(CO)C(O)C3O)c2[nH]1 (stereo unspecified)	inactive	
CCC(C)[C@H](N)c1nnc(SCC(=O)c2ccc(Cl)cc2)o1 (stereo partly specified)	inconclusive [inhibitor, single point]	
O=c1cc(CO)oc(C(Nc2ccccn2)c2ccc(F)cc2)c1O (stereo unspecified)	active: 8.91 µM	
CCc1nc(SCC(=O)Nc2nc3c(s2)CCCC3)c2ccccc2n1	inactive	
COc1ccccc1CN1C[C@@H]2C[C@@H](C3=Cc4cc(Cl)ccc4OC3)N3CCC[C@@]23C1=O	inactive	
CN(Cc1ccccc1)Cc1ccccc1F	inconclusive [inhibitor, single point]	
COc1cccc(/C=N/NC(=O)C(=O)Nc2ccccc2OC(F)(F)C(F)F)c1	inactive	
O=C(NC1(C(=O)O)CCCC1)c1ccccc1		inactive: -3.71% [at 13.5 µM]
Cc1ccc(C(=O)c2ccccc2C(=O)OCC(=O)NC(C)(C)C)cc1	inconclusive [inhibitor, single point]	
Cc1cc(S(=O)(=O)NCC(=O)O)ccc1F	inactive	
CCN(CC)S(=O)(=O)c1ccc(N2CCCC2)c(C(=O)Nc2ccc(OC)c(Cl)c2)c1	inconclusive [inhibitor, partial curve]	
CN(C)c1nc(N)c(C(=O)Nc2cccnc2)nc1Cl	inconclusive [inhibitor, partial curve]	
C=C(C)Cn1c(SCC(=O)O)nnc1-c1ccc(C(C)(C)C)cc1	inconclusive [inhibitor, partial curve]	
CCOC(=O)c1c(C)[nH]c(C(=O)CSc2nccc(C)n2)c1C	inconclusive [inhibitor, single point]	
Cc1cccc(N2C(=O)CC(N3CCN(Cc4ccc(Cl)cc4)CC3)C2=O)c1 (stereo unspecified)	inconclusive [inhibitor, single point]	
